In ChEMBL document CHEMBL4888484, “Replenishing the malaria drug discovery pipeline: Screening and hit evaluation of the MMV Hit Generation Library 1 (HGL1) against asexual blood stage Plasmodium falciparum ,using a nano luciferase reporter read-out” (2022):
The campaign covered roughly 150,000 compounds. About 540 (0.36%) showed an effect of 50% or more. The list shows a part of the results.

System: Plasmodium falciparum
Assay: Primary screen in NF54 nanoGlo assay, in single point, at 2uM, 72h; a lower Z score goes with more inhibition
Assay type: functional, Erythrocyte
Conditions: timepoint 72 hour

SMILES	% Inhibition	Z score
CCCCNC(=O)c1nc2cccnc2n(C)c1=O	1%	-0.15
Cc1nc([C@H]2CCCN2CCN2C(=O)c3ccccc3C2=O)cs1	-16%	1.98
COc1ccc(/C=C/CN2CCC[C@H](CNC(=O)c3cc(C(F)F)[nH]n3)C2)cc1	4%	-0.64
CC1(C)NC(=O)N(CCCn2cc(Cl)cn2)C1=O	-12%	1.19
Cc1cnc(CN2C[C@]3(CCCN(c4cc(C(N)=O)ccn4)C3)CCC2=O)cn1	-17%	2.19
Cc1ccc2c(c1)c(-c1cc(NCC(=O)O)nc3[nH]ccc13)nn2C	4%	-0.7
Cc1cncc(Br)c1NC(=O)C(F)F	-8%	1.58
CC(C)[C@@H]1N(C(=O)c2cn(CC3CC3)nn2)CC12CCCC2	-14%	2.08
CC(=O)N1CCN(CC(=O)N2CCC[C@H]2c2cccs2)CC1	-1%	0.21
C[C@H]1CN(c2ncnc3c2CN(C)CC3)CC(C)(C)O1	-3%	0.39
CC(C)n1cc(NC(=O)NCCOc2ccccc2)nn1	-2%	0.21
Cc1cc(CN(C)S(=O)(=O)[C@H]2CCOC2)no1	4%	-0.65
COCCN(C)CC(=O)N1CC[C@@H]2OCc3cccc(c3)Oc3cncc(c3)C(=O)NCCCC(=O)N[C@H]2C1	-10%	1.28
Cc1sc(CN2C(=O)CCC2=O)nc1-c1c(F)cc(F)cc1F	-9%	0.85
COc1ccccc1C1=NS(=O)(=O)N(C)C(C(=O)N(C)Cc2ccccc2)=C1	2%	-0.39
CC(CCn1cncn1)NC(C)c1cc2cc(Cl)ccc2o1 (configuration not stated)	12%	-1.27
CN(C)C(=O)C1CCC(CNC2CCCC(C(F)(F)F)C2)O1 (configuration not stated)	6%	-0.93
COc1ccc(C(=O)N2C[C@@H]3C[C@H](C2)c2c(NC(=O)c4ccc5c(c4)OCO5)ccc(=O)n2C3)cc1	3%	-0.4
Cc1noc(C)c1S(=O)(=O)N1CC(=O)Nc2ccccc21	12%	-1.43
NC[C@H]1CCCCN1C(=O)c1cc(Oc2ccccc2)ccn1	-3%	0.49
Cc1c(C(=O)N2CCCCCC2)sc2nc(-c3ccccc3)cn12	12%	-1.52
Cc1csc(C(=O)NCc2cn(-c3cccnc3)nn2)c1	-7%	1.08

SMILES	% Inhibition	Z score
CC1(C)CN(C(=O)c2cncc(O)c2)C[C@@](C)(C(F)(F)F)O1	-21%	3.03
Cc1ccc([C@@H](O)CNC(=O)C2(N3CCCC3)CCCCC2)cc1	-2%	0.26
O=C(COc1ccc(F)cc1)Nc1cccc(-c2ccc3ccccc3n2)c1	12%	-1.41
CCN(C(=O)c1cc2c(s1)CCCCCC2)[C@H]1CCS(=O)(=O)C1	8%	-1.57
CCCCn1nnnc1CN(C)[C@H]1CCCN(Cc2noc(C)n2)C1	-11%	1.53
Cc1ccc(S(N)(=O)=O)cc1NC[C@@H]1CC=CCC1	10%	-0.97
CN1CCCN(CCCCC2CCOCC2)CC1=O	3%	-0.38
Cc1nc(C(C)C)sc1C(=O)N(C)C[C@H]1COc2ccccc2O1	-8%	0.89
Cc1cc([C@H]2C[C@H]3CC[C@@H](C2)N3C(=O)Cn2ccnc2)ccc1F	-15%	2.12
Cc1nc(C(=O)N(C)Cc2cc(-c3cccs3)n[nH]2)cs1	-4%	0.85
O[C@H](c1cncc(Br)c1)C(F)(F)F	1%	-0.14
OCCn1ncnc1-c1ccc(CN2CCCCC2)cc1	14%	-1.87
Cc1cc(C)n(C[C@@H](C#N)CCC#N)n1	1%	-0.26
COCCNC(=O)C1CCC(c2cccc(C)c2)N(C(=O)NC(C)C)C1 (configuration not stated)	-11%	1.5
CN1CCCN(C(=O)CCc2ccc3ccn(C)c3c2)CC1	-10%	1.13
Cc1ccc(-c2c(C)nn3c2NC(=O)CCC3=O)cc1S(=O)(=O)NCc1ccccn1	0%	0.01
CC(=O)N1CCC(N2CCC[C@H]2c2nc(-c3ccc(F)cn3)no2)CC1	-7%	1.35
O=C(c1cnccn1)N1CC=C(c2cccc3ccccc23)CC1	3%	-0.38
COc1ccc(C2c3[nH]c4ccccc4c3CC3C(=O)N(c4ccccc4)C(=O)N32)cc1 (configuration not stated)	-3%	0.44
Cc1nnsc1CN(C)C[C@H](O)CO	1%	-0.21
CCCc1c([C@H]2CCOC(C)(C)C2)nc(N)c(C#N)c1-c1c[nH]cn1	-14%	1.77
Cc1cc(C)n(-c2ccnc(NCc3cccc(Br)c3)n2)n1	-7%	0.75

SMILES	% Inhibition	Z score
Cn1c(=O)c2c(-c3ccc(Br)cc3)n(-c3ccccn3)cc2n(C)c1=O	-5%	0.83
Cc1n[nH]c(C)c1-c1cc(C2CC2)c(C#N)c(N)n1	-13%	1.77
Cc1ccc(C(=O)N2CCN(S(=O)(=O)c3cc4c(cc3Cl)NC(=O)[C@H](C)O4)CC2)cc1	-12%	1.17
Cc1cc(C(=O)Nc2cn(CC(C)C)nc2C(F)F)cc(O)n1	-3%	0.5
O=C(O)[C@H]1CN(C(=O)CCC2CCOC2)C[C@@H]1c1ccc(Br)cc1 (some centres not stated)	20%	-2.58
OCCn1nc(Cc2cccnc2)nc1-c1ccc2c(c1)OCCO2	0%	0
COCCc1nnc(NC(=O)c2snnc2C)o1	-3%	0.45
COCCN1CC2(CCC1=O)CCN(Cc1cnc(C(C)C)nc1)CC2	0%	0.01
CCCCN1CCn2nc(CNc3cc(C)nc(C(C)C)n3)cc2C1	4%	-0.72
CN(C)C[C@H]1CN(CC(=O)NCCC2=CCCCC2)CCO1	-6%	0.63
CC(=O)N1CCC(NC(=O)N2CC[C@@H](O)[C@H]2c2ccc(Cl)cc2)CC1	-14%	1.57
CN(CCc1ccccn1)Cc1nnc2n1CCCCC2	-25%	3.15
CN(C)c1nc2c(c(NCCc3nncn3C)n1)CCCC2	-9%	0.87
O=C(c1cccc(C(F)F)c1)N1CCOC2(CCC2)C1	-11%	1.52
CCc1nc(C)c(CNS(=O)(=O)N2CCN(C)CC2)s1	-14%	2.35
Cc1nc(CN(C)C(=O)c2ccc3c(c2)CCO3)cs1	-8%	1.48
O=C(NC1CCCC1)c1cc2n(n1)C[C@@H](c1ccc3c(c1)OCO3)OC2	4%	-0.73
CC[C@H](NS(=O)(=O)c1sc2c(c1C(=O)O)CCNC2)c1cccnc1	-10%	1.15
CCNC(=O)N1CCC(n2cc(CN3CCC[C@H]3c3nccs3)nn2)CC1	-3%	0.39
CC1(C)CCc2nnc(-c3cccc(S(=O)(=O)N4CCCC4)c3)n2C1	-2%	0.3
CCCCn1nnnc1Cn1ccc(C)cc1=O	-5%	0.91
Cc1nc(CN2C[C@H](c3ccccc3)C(C)(C)C2)co1	-9%	1.48

SMILES	% Inhibition	Z score
O=C(c1cnccn1)N1C[C@H]2CC[C@@H](C1)N(C(=O)c1ccc3[nH]nnc3c1)C2	1%	-0.07
CC(C)(CNc1ccc(C(=O)N2CCc3ccccc32)cn1)NS(C)(=O)=O	-14%	1.89
COc1ccc(NC(=O)Cn2c(=O)c3cc(C4CC4)nn3c3ncccc32)cc1Cl	-21%	2.22
CC1CCC(O)(CN(C)C2CCCC2S(C)(=O)=O)CC1 (configuration not stated)	0%	0.01
Cc1cnc2c(cnn2CC(=O)NCc2cccc(N3CC=CC3)c2)c1	-17%	1.78
COC1(c2noc([C@@H](c3ccccc3)N(C)C)n2)CCOCC1	-15%	1.98
CC[C@@H](CC#N)NC(=O)Nc1cc(C#N)ccc1Cl	-11%	0.92
CN(CCN(C)C1CC1)C(=O)C[C@H](c1ccc(O)cc1)C1CC1	-6%	1.1
COc1ccc(C(=O)NC(C)(C)CO)cc1	-5%	0.71
Cc1nnc2n1[C@@H](C)CN(C(=O)c1cncc(Cl)c1)C2	-14%	1.23
CN(Cc1cn2c(n1)CCCC2)C(=O)c1cnn2ncccc12	-41%	4.82
COCCCN(Cc1ccc(OC)cc1)C[C@H](O)COCC(C)C	3%	-0.47
NCc1cc(-c2cccs2)nn1C1CCCC1	-10%	1.17
Cn1cncc1C(=O)N[C@H]1CC=CC[C@@H]1C(N)=O	3%	-0.45
CC1C(C(F)(F)F)CCCN1C(=O)c1ccc2[nH]c(=O)n(C)c2c1 (configuration not stated)	-11%	1.72
O=C(c1ccccc1)N1CCN([C@H]2CC(=O)N(Cc3ccccc3)C2=O)CC1	-41%	4.86
Cc1ccccc1[C@@H](O)CNC(=O)NCCCOC1CCCC1	3%	-0.38
CNc1nc(C(=O)N2CC[C@@](O)(C3CCOCC3)[C@H](C)C2)cs1	-15%	1.51
CC1(C)C2CCC1(C)C1(C2)NC(=O)c2ccccc2O1 (configuration not stated)	-16%	1.92
O=C(NC1CCCCC1)C1CC(O)CN1c1ccncn1 (configuration not stated)	17%	-2.13
